{
  "source": "PubChem BioAssay AID686970",
  "about": "(National Center for Advancing Translational Sciences (NCATS), 2013)",
  "note": "The whole screen tested about 360,000 compounds, of which about 6,000 (1.7%) were called active. This list was built around the results that the source calls inconclusive (neither active nor inactive); the mix of calls is not that of the screen. Calls come from the whole dose curve; as a rule, active = well fitted cell-killing curve with a large enough effect; inconclusive = small, poorly fitted or top-dose-only effect, or effect the other way; inactive = flat fitted curve, though single readings scatter. No potency is given beside an inconclusive call; the fits are too rough. Potency is the fitted concentration of half-maximal effect; tags give direction and shape of the fitted curve.",
  "data": [
    {"test": "qHTS for induction of synthetic lethality in tumor cells producing 2HG: qHTS for the HT-1080-NT fibrosarcoma cell line;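 note: NT is the 2HG producing partner of a matched IDH1 knockdown line; nearly all actives have a fitted effect of over 55% in size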;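 for activity, negative = less viability: 0% = DMSO-treated cells and -100% = media-only wells without cells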", "conditions": "HT-1080-NT fibrosarcoma viability, CellTiter-Glo ATP luminescence, 48 h; activity, negative = less viability: at 46.1 µM (top of the series) unless noted", "method_in_brief": "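Toxicity toward the 2HG-producing NT line was scored as %Activity, normalised to DMSO and no-cell wells, from CellTiter-Glo luminescence after 48 hours' treatment.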", "values": [
      {"compound": "Cc1ccccc1NC(=O)Cc1nc(COC(=O)c2cccc(C)c2O)cs1", "activity, negative = less viability": "inactive: 4.89%"},
      {"compound": "O=C(Nc1ccc(Br)cc1)NC1CCCCCCC1", "Potency": "inconclusive [cytotoxic, single point]"},
      {"compound": "Cc1ccccc1OCCn1cc(C(=S)N2CCN(C)CC2)c2ccccc21", "activity, negative = less viability": "inactive: -9.95%"},
      {"compound": "CC(=O)c1c(C)oc2ccc(N(C(C)=O)S(=O)(=O)c3cccc4cccnc34)cc12", "Potency": "inconclusive [cytotoxic, single point]"},
      {"compound": "COc1ccc([C@@H](NC(=O)OC(C)(C)C)C(=O)OC(C)(C)C)cc1", "activity, negative = less viability": "inactive: 10.3%"},
      {"compound": "CCCn1c(SCC(=O)N2CCCC2)nc2c1c(=O)n(C)c(=O)n2C", "activity, negative = less viability": "inactive: 0.176%"},
      {"compound": "O=[N+]([O-])c1cc(S(=O)(=O)Nc2ccccc2)ccc1N1CCN(c2ccccc2)CC1", "Potency": "inconclusive [cytotoxic, single point]"},
      {"compound": "CC1(C(=O)Nc2ccc(Cl)c(C(F)(F)F)c2)Cc2c(-c3ccc4c(c3)OCO4)ccnc2O1", "note": "(stereo not drawn)", "Potency": "inconclusive [cytotoxic, single point]"},
      {"compound": "CC1CCN(S(=O)(=O)Cc2ccccc2Cl)CC1", "Potency": "inconclusive [rising, partial curve]"},
      {"compound": "C[C@H](O)[C@@H]1CN2CCc3c([nH]c4ccccc34)[C@@H]2C[C@@H]1N(C)C(=O)Nc1ccc(F)cc1", "activity, negative = less viability": "inactive: -14.8%"},
      {"compound": "O=C(CSc1nc(C2CCCCC2)nc2ccccc12)NCc1ccco1", "Potency": "inconclusive [cytotoxic, single point]"},
      {"compound": "COc1ccccc1CN1CC(C(=O)NCCc2ccc(C)o2)CCC1=O", "note": "(stereo not drawn)", "Potency": "inconclusive [rising, single point]"},
      {"compound": "CN(c1ccccc1)S(=O)(=O)c1ccc(NC(=O)c2nc(S(C)(=O)=O)ncc2Cl)cc1", "Potency": "inconclusive [cytotoxic, single point]"},
      {"compound": "Cc1nc2nc(C)n(CCN3CCOCC3)c(=O)c2c(-c2cccc([N+](=O)[O-])c2)c1C(=O)CCCCCCCCCCN1CCC(c2ccccc2)(c2ccccc2)CC1", "Potency": "inconclusive [cytotoxic, single point]"},
      {"compound": "CCN1CCN(CCNC(=O)c2ccc3c(c2)N(Cc2ccc(F)cc2)C(=O)c2ccccc2S3=O)CC1", "note": "(stereo not drawn)", "Potency": "inconclusive [cytotoxic, single point]"},
      {"compound": "N=c1c2ccccc2nc2n1CCCCCCCCCCC2", "Potency": "inconclusive [cytotoxic, single point]"},
      {"compound": "O=c1cc(-c2ccc(O)cc2)oc2cc(O)c([C@@H]3O[C@H](CO)[C@@H](O)[C@H](O)[C@H]3O)c(O)c12", "Potency": "inconclusive [rising, single point]"},
      {"compound": "Cc1ccccc1OCC(O)Cn1c2ccccc2c2ccccc21", "note": "(stereo not drawn)", "Potency": "inconclusive [cytotoxic, single point]"},
      {"compound": "Cn1cc(CN2CCC(C(=O)NC(c3ccc(F)cc3)c3ccc4ccccc4n3)CC2)c2ccccc21", "note": "(stereo not drawn)", "Potency": "active: 23.1 µM"},
      {"compound": "Cc1ccc(Nc2nc(NCc3ccco3)c3ccccc3n2)cc1", "Potency": "inconclusive [cytotoxic, single point]"},
      {"compound": "CN1CCN(C(=S)c2cn(Cc3ccc(Br)cc3)c3ccccc23)CC1", "Potency": "inconclusive [cytotoxic, single point]"},
      {"compound": "COc1ccc(C(=O)NC2CC2)cc1OC1CCN(C(C)CSC)CC1", "note": "(stereo not drawn)", "activity, negative = less viability": "inconclusive: -0.279% [cytotoxic]"},
      {"compound": "CC1CN(S(=O)(=O)c2ccc(CN3C(=O)c4cccnc4C3=O)cc2)c2ccccc2O1", "note": "(stereo not drawn)", "activity, negative = less viability": "inconclusive: 30.4%"},
      {"compound": "O=C(Nc1ccc(Cl)cc1)Nc1ccccc1NS(=O)(=O)c1cccs1", "Potency": "inconclusive [cytotoxic, single point]"},
      {"compound": "CCN(CC)C(=O)c1cccc(-c2csc(C(O)c3ccc(F)c(OC)c3)n2)c1", "note": "(stereo not drawn)", "Potency": "active: 1.03 µM"},
      {"compound": "O=C1N/C(=C/c2ccsc2)C(=O)N1c1ccccc1", "activity, negative = less viability": "inactive: 24.7%"},
      {"compound": "CC(C)(C)c1ccc(-c2nc(C#N)c(NCCCn3ccnc3)o2)cc1", "Potency": "active: 20.6 µM"},
      {"compound": "CCC(CNc1cc(OC)cc2cccnc12)NC1CCCCC1", "note": "(stereo not drawn)", "activity, negative = less viability": "inactive: -7.01%"},
      {"compound": "CC1(C)Cc2c(sc(NC(=O)c3ccc(C(=O)c4ccccc4)cc3)c2C(N)=O)C(C)(C)N1", "Potency": "active: 10.3 µM"},
      {"compound": "COc1cc2nc(NCCCN3CCN(C)CC3)n3nc(-c4ccccc4)nc3c2cc1OC", "Potency": "active: 16.4 µM"},
      {"compound": "Cc1ccccc1COC(=O)c1cc([N+](=O)[O-])ccc1N1CCOCC1", "Potency": "inconclusive [cytotoxic, partial curve]"},
      {"compound": "Cc1cc(NC(=O)CCN2CCN(C/C=C/c3ccccc3)CC2)ccc1Br", "Potency": "active: 20.6 µM"},
      {"compound": "CCOC(=O)C1=NOC2(C1)C(=O)Nc1ccc(OC(F)(F)F)cc12", "note": "(stereo not drawn)", "Potency": "inconclusive [cytotoxic, single point]"},
      {"compound": "CCn1c(C)nc2cc(C(=O)N/N=C/c3cccc(O)c3O)ccc21", "Potency": "inconclusive [cytotoxic, partial curve, poor fit]"},
      {"compound": "CCC1CCCCN1CCCNC(=O)Cn1ncn2nc(-c3ccc(OC)cc3)cc2c1=O", "note": "(stereo not drawn)", "Potency": "inconclusive [cytotoxic, single point]"},
      {"compound": "COCCn1c(SCc2nc3ccccc3c(=O)[nH]2)nc2ccccc2c1=O", "Potency": "inconclusive [cytotoxic, partial curve, poor fit]"},
      {"compound": "CCCCNC1C(CC)C(CCC)C(C#N)(C#N)C1(C#N)C#N", "note": "(stereo not drawn)", "Potency": "inconclusive [cytotoxic, single point]"},
      {"compound": "O=C(Nc1cccc(S(=O)(=O)Nc2ccccc2F)c1)c1ccc2ccccc2n1", "activity, negative = less viability": "inactive: -2.89%"},
      {"compound": "O=C(Nc1cccc(S(=O)(=O)C(F)(F)F)c1)[C@H]1C[C@H](O)[C@@H](CO)O1", "activity, negative = less viability": "inactive: 2.37%"},
      {"compound": "Cc1ccc(OCC(=O)N2N=C(c3ccncc3)CC2(O)C(F)(F)F)cc1C", "note": "(stereo not drawn)", "Potency": "inconclusive [cytotoxic, single point]"},
      {"compound": "COc1ccc(CCN2C(=O)NC(NC(C)=O)(C(F)(F)F)C2=O)cc1OC", "note": "(stereo not drawn)", "activity, negative = less viability": "inactive: 17.9%"},
      {"compound": "CC(C)(C)c1ccc(C(=O)N/N=C/c2cccc(Cl)c2)cc1", "Potency": "inconclusive [cytotoxic, partial curve]"},
      {"compound": "CC(=O)Oc1ccccc1C(=O)Oc1ccc(/C=N/n2cnnc2)cc1", "Potency": "inconclusive [cytotoxic, single point]"},
      {"compound": "CC1(C(=O)NS(C)(=O)=O)CCN1C(=O)C/C=C/c1ccccc1", "note": "(stereo not drawn)", "Potency": "inconclusive [rising, single point]"},
      {"compound": "Cc1cc(C)cc(Cn2c(C)c(C(=O)N(C)Cc3ccc(F)cc3)sc2=O)c1", "activity, negative = less viability": "inactive: -25.7%"},
      {"compound": "Cc1ccc(-c2nc3c(C)cc(Br)cn3c2Cc2ccsc2)cc1", "Potency": "inconclusive [cytotoxic, single point]"},
      {"compound": "N#C/C(=C\\c1ccc(N2CCOCC2)cc1)c1ccccc1", "Potency": "inconclusive [cytotoxic, single point]"},
      {"compound": "Cc1cccc2sc(NS(C)(=O)=O)nc12", "activity, negative = less viability": "inactive: -6.37%"},
      {"compound": "COc1ccc(-c2nc3ccc(NC(=O)CO)cc3c(=O)n2Cc2cccc(Cl)c2)cc1COc1ccc(NC(C)=O)cc1", "Potency": "inconclusive [cytotoxic, single point]"},
      {"compound": "CS(=O)(=O)N(Cc1ccccc1Cl)c1ccc(C(=O)NCc2cccnc2)cc1", "Potency": "inconclusive [cytotoxic, single point]"},
      {"compound": "CC(C)CC(NC(=O)C(Cc1ccc(OCc2ccccc2)cc1)NC(=O)OC(C)(C)C)C(N)=O", "note": "(stereo not drawn)", "Potency": "inconclusive [cytotoxic, single point]"},
      {"compound": "COc1ccc(C(=O)c2ccc(Cl)cc2)cc1", "Potency": "inconclusive [rising, full curve]"},
      {"compound": "CCN(CC)C(=O)c1ccc2nc(-c3ccccc3)c(-c3ccccc3)nc2c1", "activity, negative = less viability": "inactive: 5.41%"},
      {"compound": "O=C(Cn1c(=O)oc2ccccc21)Nc1ccccc1N1CCOCC1", "activity, negative = less viability": "inconclusive: 36%"},
      {"compound": "O=C(c1cccc(S(=O)(=O)NCc2ccccc2)c1)N1CCN(c2cccc(C(F)(F)F)c2)CC1", "Potency": "inconclusive [cytotoxic, partial curve]"},
      {"compound": "CCN1C(=O)C(CC(=O)Nc2ccc(OC)cc2)N(CCc2ccc(F)cc2)C1=S", "note": "(stereo not drawn)", "Potency": "inconclusive [cytotoxic, single point]"},
      {"compound": "Cn1c(=O)cc(OCCCC(=O)NCc2ccccn2)c2ccccc21", "activity, negative = less viability": "inactive: -2.61%"},
      {"compound": "CC(=O)Nc1ccc(NC(=O)c2csc([C@@H]3C[C@H](O)[C@@H](CO)O3)n2)cc1", "activity, negative = less viability": "inactive: 24.5%"},
      {"compound": "CCOC(=O)Cc1cc(-c2ccc(O)cc2)nc2ccc3ccccc3c12", "Potency": "inconclusive [cytotoxic, single point]"},
      {"compound": "CCCCn1nnnc1C(c1cc2ccccc2o1)N1CCN(C(=O)OC(C)(C)C)CC1", "note": "(stereo not drawn)", "Potency": "inconclusive [cytotoxic, single point]"},
      {"compound": "Cc1ccc2c(c1)N(C(=O)CCC(=O)N1CCN(c3cccc(C)c3C)CC1)CCO2", "Potency": "inconclusive [cytotoxic, single point]"},
      {"compound": "O=C(Nc1cccnc1)c1ccc(COc2ccccc2Br)o1", "Potency": "active: 4.47 µM"},
      {"compound": "CC(C)NC(=O)N1CCCN(c2nc3ccc(Cl)cc3s2)CC1", "Potency": "inconclusive [cytotoxic, partial curve]"},
      {"compound": "c1ccc(OCCOCCN2CCN(C(c3ccccc3)c3ccccc3)CC2)cc1", "activity, negative = less viability": "inactive: -10.2%"},
      {"compound": "CCCCCCCCN1C(=O)[C@H](CC(=O)NCCCOC)C[C@@]2(C(=O)OC)CC(C)(C)CC=C12", "Potency": "inconclusive [cytotoxic, single point]"},
      {"compound": "O=C(CN1C(=O)CCSc2ccccc21)Nc1ccccc1", "activity, negative = less viability": "inactive: 8.67%"},
      {"compound": "O=C1CSC(=S)N1c1cccc(Br)c1", "Potency": "inconclusive [cytotoxic, single point]"},
      {"compound": "CCOC(=O)c1ccc(NC(=O)COc2cc3oc(=O)c(CC(C)O)c(C)c3cc2Cl)cc1", "note": "(stereo not drawn)", "activity, negative = less viability": "inactive: 21.6%"}
    ]}
  ]
}
